# In publication PMC3169599:
# Sequences of proteins named here, by UniProt entry; tags and fusion partners are left off.
# UniProt P51810: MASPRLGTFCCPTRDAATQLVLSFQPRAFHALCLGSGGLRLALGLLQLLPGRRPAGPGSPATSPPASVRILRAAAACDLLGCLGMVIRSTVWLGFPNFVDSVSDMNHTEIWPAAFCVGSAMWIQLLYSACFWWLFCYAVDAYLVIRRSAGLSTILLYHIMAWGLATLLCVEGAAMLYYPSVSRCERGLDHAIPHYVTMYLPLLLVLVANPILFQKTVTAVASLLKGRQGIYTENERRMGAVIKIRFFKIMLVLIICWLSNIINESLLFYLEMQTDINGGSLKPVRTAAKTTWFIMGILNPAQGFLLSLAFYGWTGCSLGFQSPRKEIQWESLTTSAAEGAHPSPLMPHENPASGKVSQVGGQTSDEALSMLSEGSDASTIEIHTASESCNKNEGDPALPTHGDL
# UniProt P08754: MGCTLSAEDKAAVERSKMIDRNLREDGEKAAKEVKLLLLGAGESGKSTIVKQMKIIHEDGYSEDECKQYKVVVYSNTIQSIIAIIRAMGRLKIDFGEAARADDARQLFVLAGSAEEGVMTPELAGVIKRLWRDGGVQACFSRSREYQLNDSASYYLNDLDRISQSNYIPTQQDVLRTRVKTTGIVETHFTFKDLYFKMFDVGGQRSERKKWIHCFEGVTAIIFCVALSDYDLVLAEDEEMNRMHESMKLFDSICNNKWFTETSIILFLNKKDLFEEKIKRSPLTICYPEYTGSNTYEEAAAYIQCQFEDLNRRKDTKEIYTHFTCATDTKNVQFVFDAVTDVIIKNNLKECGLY
# UniProt P63096: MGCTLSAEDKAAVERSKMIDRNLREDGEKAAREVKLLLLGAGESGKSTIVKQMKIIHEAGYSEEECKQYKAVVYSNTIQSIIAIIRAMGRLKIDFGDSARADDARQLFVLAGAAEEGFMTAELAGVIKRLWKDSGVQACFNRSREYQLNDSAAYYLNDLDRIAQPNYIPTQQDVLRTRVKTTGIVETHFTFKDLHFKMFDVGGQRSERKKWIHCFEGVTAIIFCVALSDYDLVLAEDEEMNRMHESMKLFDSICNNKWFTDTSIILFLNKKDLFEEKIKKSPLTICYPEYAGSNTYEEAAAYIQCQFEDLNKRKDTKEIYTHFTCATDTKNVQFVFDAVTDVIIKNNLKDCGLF
# UniProt P04899: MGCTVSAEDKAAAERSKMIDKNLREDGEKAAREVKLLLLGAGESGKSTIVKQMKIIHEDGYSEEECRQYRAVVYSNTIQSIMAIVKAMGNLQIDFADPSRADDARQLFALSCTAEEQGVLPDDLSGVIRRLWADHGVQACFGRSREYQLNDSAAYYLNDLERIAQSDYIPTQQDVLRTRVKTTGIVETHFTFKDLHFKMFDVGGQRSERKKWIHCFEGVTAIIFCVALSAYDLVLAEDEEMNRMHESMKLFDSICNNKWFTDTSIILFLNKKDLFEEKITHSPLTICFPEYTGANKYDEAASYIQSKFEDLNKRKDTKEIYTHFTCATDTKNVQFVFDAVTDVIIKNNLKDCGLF
# UniProt P50148: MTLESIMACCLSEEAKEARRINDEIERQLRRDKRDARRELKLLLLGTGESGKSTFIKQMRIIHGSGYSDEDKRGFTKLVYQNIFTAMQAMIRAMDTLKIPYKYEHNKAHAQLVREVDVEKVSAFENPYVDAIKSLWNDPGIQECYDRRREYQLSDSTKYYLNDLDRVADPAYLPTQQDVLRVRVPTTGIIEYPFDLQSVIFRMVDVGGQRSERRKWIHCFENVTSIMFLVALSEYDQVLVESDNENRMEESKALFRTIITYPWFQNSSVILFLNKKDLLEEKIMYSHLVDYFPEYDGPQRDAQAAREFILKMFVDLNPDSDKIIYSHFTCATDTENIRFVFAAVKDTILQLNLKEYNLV
# UniProt P63092: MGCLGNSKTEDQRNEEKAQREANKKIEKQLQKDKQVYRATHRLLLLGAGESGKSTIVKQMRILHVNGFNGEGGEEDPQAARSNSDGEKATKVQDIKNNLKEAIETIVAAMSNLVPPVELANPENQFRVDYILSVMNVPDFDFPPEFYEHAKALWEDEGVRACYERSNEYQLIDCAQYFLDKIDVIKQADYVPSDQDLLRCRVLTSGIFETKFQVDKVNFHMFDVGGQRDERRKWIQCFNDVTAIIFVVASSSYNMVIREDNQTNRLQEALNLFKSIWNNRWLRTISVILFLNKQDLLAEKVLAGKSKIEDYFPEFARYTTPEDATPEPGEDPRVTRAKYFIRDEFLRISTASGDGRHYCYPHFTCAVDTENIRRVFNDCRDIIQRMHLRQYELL
# Results are given in words; binding and its absence hold for the method and conditions named. Binding seen in cells or lysates may run through a third protein. Some results given as binding are weak or reduced against the parent protein; the word gives no strength. For part of these data: Tags and fused reporters may be left off the sequences shown.
# Columns and labels:
# [1] = target: T1, GST::Oa1-i3 fusion protein (third intracellular loop of mouse Oa1, residues 213-248) (mouse) (UniProt P70259); assay: pull-down; about 1 ug GST or GST-fusion protein on glutathione agarose resin, incubated with 10 ul 35S-labeled in-vitro translated Gα protein; 50 mM Tris pH 7.5, 100 mM NaCl, 0.5% Triton X-100; 2 h at room temperature; SDS-PAGE and autoradiography; only the target purified
# T1 sequence: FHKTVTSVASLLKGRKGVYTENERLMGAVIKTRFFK
# [2] = target: T2, GST::Oa1-CT fusion protein (carboxy-terminal tail of mouse Oa1, residues 314-405) (mouse) (UniProt P70259); assay: as above
# T2 sequence: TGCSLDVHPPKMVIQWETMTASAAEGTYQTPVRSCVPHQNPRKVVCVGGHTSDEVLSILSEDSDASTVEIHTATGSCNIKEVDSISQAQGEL
# [3] = target: OA1 (human ocular albinism type 1 G-protein-coupled receptor), endogenous in RPE (human (endogenous in RPE)) (UniProt P51810); assay: co-IP; adult human RPE lysate in RIPA buffer; IP with rabbit polyclonal anti-OA1 and blot with anti-Gαi3, and the reciprocal IP with anti-Gαi3 and blot with anti-OA1; pre-immune serum as control; protein G-Sepharose
# [4] = target: Gαi3 (guanine nucleotide binding protein, alpha inhibiting activity polypeptide 3), endogenous in human RPE (human (endogenous in RPE)) (UniProt P08754); assay: as above
binding [1],binding [2],binding [3],binding [4],Substance
no binding,no binding,–,–,"35S-labeled Gαi1, in-vitro transcribed and translated (from UniProt P63096 1-354)"
no binding,no binding,–,–,"35S-labeled Gαi2, in-vitro transcribed and translated (from UniProt P04899 1-355)"
binds,binds,–,–,"35S-labeled Gαi3, in-vitro transcribed and translated (from UniProt P08754 1-354)"
no binding,no binding,–,–,"35S-labeled Gαq, in-vitro transcribed and translated (from UniProt P50148 1-359)"
no binding,no binding,–,–,"35S-labeled Gαs, in-vitro transcribed and translated (from UniProt P63092 1-394)"
–,–,binds,–,"Gαi3 (guanine nucleotide binding protein, alpha inhibiting activity polypeptide 3), endogenous in human RPE (from UniProt P08754 1-354)"
–,–,–,binds,"OA1 (human ocular albinism type 1 G-protein-coupled receptor), endogenous in RPE (from UniProt P51810 1-404)"
